About 2,200 (0.71%) of roughly 310,000 compounds showed an effect of 50% or more. Effects have a minus sign here. Some of the results follow.
Target: human ether-à-go-go-related gene (hERG) potassium channel (human, UniProt Q12809)
Experiment: primary screen, population patch clamp on CHO cells stably expressing hERG

human ether-à-go-go-related gene (hERG) potassium channel, sequence (Q12809 whole entry, looked up): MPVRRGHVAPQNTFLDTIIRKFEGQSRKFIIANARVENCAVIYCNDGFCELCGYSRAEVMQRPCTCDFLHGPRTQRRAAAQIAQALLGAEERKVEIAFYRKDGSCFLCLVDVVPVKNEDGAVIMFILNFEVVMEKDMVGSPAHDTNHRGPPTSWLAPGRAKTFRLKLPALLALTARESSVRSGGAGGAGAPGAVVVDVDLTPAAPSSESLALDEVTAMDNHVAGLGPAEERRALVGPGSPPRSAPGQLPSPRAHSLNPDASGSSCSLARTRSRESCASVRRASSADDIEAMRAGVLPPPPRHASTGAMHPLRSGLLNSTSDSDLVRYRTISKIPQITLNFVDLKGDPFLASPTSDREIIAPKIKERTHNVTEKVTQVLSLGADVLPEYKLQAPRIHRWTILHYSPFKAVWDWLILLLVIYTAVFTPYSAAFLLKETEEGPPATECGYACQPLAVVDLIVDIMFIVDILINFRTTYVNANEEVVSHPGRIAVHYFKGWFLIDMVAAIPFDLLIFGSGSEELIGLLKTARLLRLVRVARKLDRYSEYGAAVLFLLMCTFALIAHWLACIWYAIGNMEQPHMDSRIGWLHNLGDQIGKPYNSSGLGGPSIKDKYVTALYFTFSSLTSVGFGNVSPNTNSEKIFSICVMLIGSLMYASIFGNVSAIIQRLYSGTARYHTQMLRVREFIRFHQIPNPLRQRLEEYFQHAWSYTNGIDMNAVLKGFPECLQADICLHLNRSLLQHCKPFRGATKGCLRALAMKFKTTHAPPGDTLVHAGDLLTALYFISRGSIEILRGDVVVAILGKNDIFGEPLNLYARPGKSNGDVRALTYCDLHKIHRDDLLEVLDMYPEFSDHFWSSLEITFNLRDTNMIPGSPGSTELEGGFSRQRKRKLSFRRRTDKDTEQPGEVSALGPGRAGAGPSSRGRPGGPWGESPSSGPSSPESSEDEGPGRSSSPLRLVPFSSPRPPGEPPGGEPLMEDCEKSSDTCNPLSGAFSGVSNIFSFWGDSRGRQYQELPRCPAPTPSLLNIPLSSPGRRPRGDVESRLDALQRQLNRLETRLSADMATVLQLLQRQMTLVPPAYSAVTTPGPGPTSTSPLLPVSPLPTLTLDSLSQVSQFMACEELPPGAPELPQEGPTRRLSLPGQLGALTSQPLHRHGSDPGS

Structure (SMILES)	hERG current change (%, negative = inhibition) at 1uM [%]
COc1ccc(OC)c(NC(=O)CCNS(=O)(=O)c2cccs2)c1	9.2
Cc1cccc(C(C)C)c1NC(=O)CN1C(=O)NC2(CCc3ccccc32)C1=O (centres unmarked)	21.1
Cc1ccc(S(=O)(=O)n2cc(-c3ccccc3)c3ccccc32)cc1	21.7
Cc1ccccc1NCC(=O)Nc1cc(S(=O)(=O)N2CCCCC2)ccc1C	6.71
Cc1cnc(C(=O)N2CCN(S(=O)(=O)c3ccc4ccccc4c3)CC2)cn1	12.3
C=CCn1c2ccccc2c(=O)c2cc(C#Cc3ccccn3)ccc21	5.13
O=c1nc(Nc2ccccc2)sc2ccc([N+](=O)[O-])cc12	4.43
CC(C)(C)c1ccc(C(=O)NCCCNC(=O)c2cccnc2)cc1	15.2
CCOc1ccc(CC(=O)NNC(=O)/C=C/C(=O)O)cc1	10.1
C[C@H](NC(=O)OCc1ccccc1)c1nnc([C@H](C)NC(=O)OCc2ccccc2)o1	-3.77
COC(=O)CN(n1cnnc1)S(=O)(=O)c1ccccc1Cl	-3.69
COc1ccccc1C(CNC(=O)CNC(=O)c1ccc(C)c(C)c1)N1CCCC1 (centres unmarked)	10.1
CN(C)CCCN(C(=O)c1cc2ccccc2oc1=O)c1nc2ccc(F)cc2s1.Cl	-26.6
Cc1ccc(C)c(NC(=O)COC(=O)c2cc3ccccc3oc2=O)c1	-1.92
CCOC(=O)N1CCC(N(CCN(C)C)C(=S)Nc2cc(C)ccc2C)CC1	16.7
C[C@H](CCC(=O)O)[C@H]1CC[C@H]2[C@@H]3CC[C@@H]4C[C@H](O)CC[C@]4(C)[C@H]3CC[C@]12C	15.8
COc1cccc(-c2cc(=O)[nH][nH]2)c1	15.2
C#CCOCCOCCOCCNc1nc(N2CCN(C(=O)CCCCCCCCCCNC(=O)Cn3cc(CCCCCN)nn3)CC2)nc(N2CCN(C(=O)CCCCCCCCCCNC(=O)[C@@H](CCC(=O)O)n3cc(CCCCCN)nn3)CC2)n1	10.4
O=C(CSc1nc(=O)n(CCCN2CCOCC2)c2c1CCCC2)Nc1ccc(F)c(F)c1	-4.91
Cc1cc(OCC(=O)Nc2ccc(S(=O)(=O)N3CCN(C)CC3)cc2)cc(C)c1Cl	0.997
Cc1cc(C)n(C(=O)c2cc3ccccc3c(=O)o2)n1	11.7
COc1cc(/C=C(/C#N)c2ccc(F)cc2)ccc1OCc1ccc(C(=O)O)o1	11.3

Structure (SMILES)	hERG current change (%, negative = inhibition) at 1uM [%]
Oc1ccc(-c2[nH]nc(-c3ccccc3)c2-c2nc3ccccc3[nH]2)cc1	-15.3
COc1ccc(C(C(=O)NC2CCCC2)N(C(=O)c2snc(-c3ccc(F)cc3)c2N)c2cccc(F)c2)cc1 (centres unmarked)	15
O=C(O)C12CC3CC(C1)CC(n1ncc(NCc4ccccc4)c(Cl)c1=O)(C3)C2	14.6
Cc1ccc(S(=O)(=O)c2nnn(-c3cccc(F)c3)c2N)cc1	-0.336
C=CCn1c(SCC(=O)NCCOC)nc2scc(-c3ccco3)c2c1=O	-11.7
COC(=O)CCn1nnc(-c2ccc(C(C)C)cc2)n1	2.69
CCC(C)(C)n1nnnc1C(c1ccccc1OC)N1CCSCC1 (centres unmarked)	-5.39
COc1ccc(CCNS(=O)(=O)c2ccc(Cl)cc2)cc1OC	7.26
CC(=O)Nc1ccc(S(=O)(=O)Nc2ccc3c(c2)CCC3)cc1	17.7
Cc1ccc(NC(=O)CCC(=O)NNC(=O)c2ccco2)c(C)c1	4.87
O=C(CSc1nnc(-c2ccccc2)n1C1CCCCC1)N1CCCC1	3.37
Cc1nc([N+](=O)[O-])cn1CC(=O)c1ccc(F)cc1	12.1
CSc1ncc(C(=O)Nc2cc(C)ccc2C)c(C)n1	3.51
CCC(CC)C(=O)Nc1nnc(S(=O)(=O)N2CCCCCC2)s1	11.6
O=C(CCSc1nc(-c2ccco2)cc(C(F)(F)F)n1)N1CCN(c2ccccn2)CC1	14.4
CCc1ccc(C(=O)N/N=C/c2cccc3ccccc23)nc1	4.46
O=C(Nc1ccc(CN2CCOCC2)cc1)c1cc(Cl)ccc1Cl	11.6
COc1cccc(C2CC(c3cccs3)=NN2S(C)(=O)=O)c1OC (centres unmarked)	12.9
O=C(CCc1ccccc1)NNC(=O)COc1ccccc1Cl	13.9
Cl.O=C1C2CCN(CC2)C1Cc1ccc(OCCOc2ccccc2)cc1 (centres unmarked)	-0.241
COC(=O)c1sc(N)c(C(=O)OC)c1COC(=O)C12CC3CC(CC(O)(C3)C1)C2	12.6
NC(=O)c1nsc(C(=O)N(CC(=O)NCc2ccco2)c2ccccc2F)c1N	1.03

From publication PMC4336329 (PLoS ONE, 2015)
